The whole screen tested about 220,000 compounds, of which about 16,000 (7.3%) were called active. The shares of active, inactive and inconclusive entries below differ from those in the screen. The call rests on the fitted dose curve; in most records, active means well fitted inhibition curve with a large enough effect (not every such curve was filed as active); inconclusive means small, poorly fitted or top-dose-only effect, or another doubt; inactive means no such curve, though single readings can be large or run the other way. Potencies of inconclusive entries are doubtful fits and often do not repeat.
biological target: Aldehyde dehydrogenase 1A1 (Homo sapiens) (UniProt P00352); assay: qHTS Assay for Inhibitors of Aldehyde Dehydrogenase 1 (ALDH1A1); conditions: Purified ALDH1A1, NADH fluorescence, propionaldehyde substrate; series mostly up to 75.3 µM
Sequence of UniProt P00352 (P00352 whole entry, looked up): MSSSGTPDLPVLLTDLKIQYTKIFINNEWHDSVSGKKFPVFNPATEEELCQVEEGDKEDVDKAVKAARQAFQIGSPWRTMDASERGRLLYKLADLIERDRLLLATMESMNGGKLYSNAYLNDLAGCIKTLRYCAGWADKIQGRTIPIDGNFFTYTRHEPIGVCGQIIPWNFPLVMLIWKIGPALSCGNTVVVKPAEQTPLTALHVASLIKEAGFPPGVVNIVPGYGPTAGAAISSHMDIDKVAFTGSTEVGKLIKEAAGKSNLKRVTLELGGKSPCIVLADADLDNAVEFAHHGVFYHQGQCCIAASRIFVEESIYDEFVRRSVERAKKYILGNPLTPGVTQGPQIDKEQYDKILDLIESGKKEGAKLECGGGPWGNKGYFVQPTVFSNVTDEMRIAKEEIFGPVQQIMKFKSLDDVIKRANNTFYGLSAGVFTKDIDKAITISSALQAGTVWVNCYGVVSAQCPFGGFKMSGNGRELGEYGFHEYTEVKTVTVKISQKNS
Potency means the concentration at half of the fitted maximal effect; tags describe the fitted curve by direction and shape.

Potency, active:
CC(C)(C)c1ccc(Cn2ccc(-c3ccc4c(c3)OCO4)n2)cc1 3.98 µM, Clc1ccc(C2=NNC(=NCc3ccccc3)SC2)cc1 10 µM, CCOC(=O)c1cccc(-n2c(C)cc(C=O)c2C)c1 11.2 µM, COc1cc(NC(=S)Nc2ccc(Br)cc2Cl)c(OC)cc1Cl 28.2 µM, Cc1ccc(-c2c(C(=O)NC(C)C)oc(=O)c3ccccc23)cc1 1.41 µM, CCOC(=O)C1(C)/C(=N/Nc2ccccc2OC)C(=O)C(=O)N1c1ccccc1 (stereo not given) 23.8 µM, COc1ccc(CNC(=O)C(c2ccc(C)o2)N(Cc2cccs2)C(=O)Cc2cccs2)cc1 (stereo not given) 3.55 µM, CCN(CC)CCNC(CC(=O)Nc1ccc(Cl)cc1Cl)C(=O)O (stereo not given) 7.08 µM, CCC(c1nnnn1Cc1ccco1)N(Cc1cc2cc(C)cc(C)c2[nH]c1=O)CC1CCCO1 (stereo not given) 12.6 µM, CC1CCCC(C)N1C(=O)Cn1c(SCC(=O)Nc2ccc3c(c2)OCO3)nc2ccccc21 (stereo not given) 5.01 µM, Nc1nnc(SCC(=O)c2ccc3ccccc3c2)s1 8.91 µM, Cc1ccc(S(=O)(=O)NCCc2ccc(S(N)(=O)=O)cc2)cc1 25.1 µM, CCOc1ccccc1C1C(C(N)=O)=C(C)Nc2nc(-c3cccc(C)c3)nn21 (stereo not given) 20 µM

Potency, inconclusive:
CCN(CC)S(=O)(=O)c1ccc(C(=O)NC(=S)N(CCC#N)Cc2cccnc2)cc1 39.8 µM [inhibitor, single point], COc1ccc(/C=N/n2cnnc2SCCO)cc1OC 35.5 µM [inhibitor, single point], CCc1nccn1C(=O)c1cnn2c(C(F)F)cc(-c3ccc(C)cc3)nc12 25.1 µM [inhibitor, partial curve], O=C1/C(=C/N(C(=O)c2ccco2)c2ccc(Br)cc2)Sc2ccccc21 39.8 µM [inhibitor, single point], Cc1cc(Sc2nccn2C)ncc1[N+](=O)[O-] 31.6 µM [inhibitor, single point], CC(C)OCCCNC(=O)CN1C(=O)/C(=C/c2ccccc2)Sc2ccccc21 22.4 µM [inhibitor, partial curve], Cc1occc1C(=O)NC1CCCc2ccccc21 (stereo not given) 39.8 µM [inhibitor, single point], CCOc1ccc(NC(=O)CN(c2ccc(OC)cc2)S(C)(=O)=O)cc1 44.7 µM [inhibitor, single point], CCOc1cccc(-c2nn3c(-c4ccco4)nnc3s2)c1 37.7 µM [inhibitor, single point], Cc1sc(NC(=O)c2ccccc2)c(C#N)c1-c1ccccc1 39.8 µM [inhibitor, single point], CCN=C1SC(C(=O)Nc2ccccc2)CC(=O)N1CC (stereo not given) 37.7 µM [inhibitor, single point], CC(=O)c1cc(C#N)c(SCc2ccccc2C#N)nc1C 11.2 µM [inhibitor, partial curve], COc1cc(C(C)=O)ccc1COc1ccc(C(=O)OCC(=O)NC(C)(C)C)cc1OC 39.8 µM [inhibitor, single point], O=C1CC(N(O)c2ccccc2)C(=O)N1c1cc(Cl)cc(Cl)c1 (stereo not given) 39.8 µM [inhibitor, single point], Cc1ccc(CSc2nnc(SCC(=O)N/N=C/c3c[nH]c4ccccc34)s2)cc1 39.8 µM [inhibitor, single point], COC(=O)[C@@]1(Cc2ccc(OC)cc2)[C@H]2c3cc(C(=O)N4CCCC4)n(Cc4nc5ccccc5[nH]4)c3C[C@H]2CN1C(=O)c1ccccc1 39.8 µM [inhibitor, single point], COC(=O)c1cc(OC)c(OC)cc1NC(=S)N1CCCCC1 28.2 µM [inhibitor, single point], CCCCn1c(SCc2cccc([N+](=O)[O-])c2)nc2ccsc2c1=O 20 µM [inhibitor, partial curve], COc1cccc(CN(C)C(=O)CCc2nnc(-c3ccsc3)o2)c1 39.8 µM [inhibitor, single point], CCOc1ncccc1C(=O)OCc1ccc(C(=O)OC)cc1 39.8 µM [inhibitor, single point], Cc1ccc(C(NC(=O)C2CCCCC2)c2c(O)ccc3ccccc23)cc1 (stereo not given) 39.8 µM [inhibitor, single point], Cn1c2ccccc2c(=O)c2c(=O)n(Cc3ccco3)c(-c3ccc(Cl)cc3Cl)nc21 14.1 µM [inhibitor, partial curve], CC(=O)OCC(=O)Nc1ccc(C(C)=O)cc1 22.4 µM [inhibitor, single point], COc1ccc(NC2=Nc3ccccc3CC2)cc1 39.8 µM [inhibitor, single point], Cc1[nH]c2c(Br)cccc2c1[C@H]1[C@@H](CC#N)C1(C)C 8.91 µM [inhibitor, full curve], CS(=O)(=O)NN1C(=O)c2ccccc2NC1c1cccs1 (stereo not given) 39.8 µM [inhibitor, single point], O=C(c1ccccc1)c1cc([N+](=O)[O-])ccc1N1CCOCC1 31.6 µM [inhibitor, single point], O=C1NC(=O)/C(=C\c2ccccc2OCc2cccc([N+](=O)[O-])c2)N1 25.1 µM [inhibitor, single point], O=C(c1ccccc1)c1nn(-c2ccccc2)c2nnc(Cc3ccccc3)c(=O)n12 22.4 µM [inhibitor, partial curve], Cc1ccc(-n2ncc3c(NCCCN4CCCC4=O)ncnc32)c(C)c1 20 µM [inhibitor, partial curve], Cc1cc(O)c(C(C)C)cc1NC1=NS(=O)(=O)c2ccccc21 20 µM [inhibitor, single point], CCOC(=O)c1ccc(NC(=O)CSc2nc3c(c(=O)n2CC)SC(C)C3)cc1 (stereo not given) 39.8 µM [inhibitor, single point], Cn1c(=O)n(Cc2ccccc2Cl)c2ccccc21 39.8 µM [inhibitor, single point], Cc1ccc(S(=O)(=O)N(CC(=O)N/N=C/c2cccc3c2OCCO3)c2ccccc2F)cc1 22.4 µM [inhibitor, partial curve], Cc1cc(C)nc(NS(=O)(=O)c2ccc(NC(=O)c3cccs3)cc2)n1 39.8 µM [inhibitor, single point], COc1cc(/C=C(\C#N)c2ccccn2)ccc1OCc1ccccc1Cl 39.8 µM [inhibitor, single point], CC(C)(C)c1ccccc1OCCOCCNCc1ccccc1 14.1 µM [inhibitor, partial curve], Cc1cc(=O)[nH]c(SCC(=O)Nc2ccccc2C#N)c1C#N 39.8 µM [inhibitor, single point], COc1ccc(C(=O)CNc2ccccc2C#N)cc1 28.2 µM [inhibitor, single point]

Potency, inactive:
O=C(c1ccc(-c2nnc(Nc3ccccc3)c3ccccc23)cc1)N1C[C@H]2C[C@H](C1)c1cccc(=O)n1C2, CC1(C)CC(N2CCOCC2)=CC(=[N+]2CCOCC2)C1, CCCCNC(=O)c1onc(CSc2cc(C)ccc2C)c1C(=O)O, CCOC(=O)c1ccc(Oc2c(C)oc3cc(OS(C)(=O)=O)ccc3c2=O)cc1, Nc1ncnc2c1ncn2[C@@H]1O[C@@H](CO)[C@H](O)[C@H]1O, CCCn1c(C)nc2c(Nc3ccccc3)nc(C)nc21, Cc1cc(C)c(C2=NOC3C4CCC(C4)C23)c(C)c1 (stereo not given), CC(=O)Nc1cccc(-c2csc(Nc3ccccn3)n2)c1, CCC(=O)Nc1cc(SCCO)cc([N+](=O)[O-])c1, CC1(C)Cc2c(sc3c2C2=NCCN2C=N3)CS1, COc1ccc(C(=O)/C=C/C(=O)N(Cc2ccc(F)cc2)C(C(=O)NC2CCCCC2)c2ccncc2)c(O)c1 (stereo not given), O=[N+]([O-])c1ccccc1/C=N/N1CCN(c2ccc(Cl)cc2)CC1, CCCC(=O)Nc1nc2ccc(NC(=O)c3c(F)c(F)c(OC)c(F)c3F)cc2s1, O=C1CCCc2c1cc(-c1ccccc1)n2-c1ccc(O)cc1, COc1ccc(N(C(C)C(=O)Nc2cccnc2)S(C)(=O)=O)cc1 (stereo not given), O=C(N[C@@H](Cc1ccc(O)cc1)C(=O)O)c1cccnc1, CC1(C)CC(=O)C/C(=N\NC(=O)C2C3CCCCC32)C1 (stereo not given), COc1cc([N+](=O)[O-])cc2cc(C(=O)N3CCCC3)c(=O)oc12, CCOC(=O)c1cnn(-c2ccccc2)c1-n1cccc1C(=O)C(=O)Nc1ccc(OC)cc1, COCCCNC(=S)Nc1ccc(OC(F)F)cc1C, COc1ccc(OCCCC(=O)Nc2nccs2)cc1, CCN1CCn2c3c(c4cc(C)ccc42)CCCC31 (stereo not given), CC(C)(C)c1ccc(OCc2ccc(C(=O)N/N=C/c3ccc(O)c(O)c3)cc2)cc1

From PubChem BioAssay AID1030 (National Center for Advancing Translational Sciences (NCATS), 2008)
